# Assay results published in PubChem BioAssay (Tox21).
# Several values for one entry are separate records, joined by “and”; a condition that tells them apart may be missing. Equal entries are not always repeated. Inconclusive results, whose numbers are uncertain, are shown with a selection of clear calls. For some of these results: Potencies of inconclusive entries are doubtful fits and often do not repeat. The source holds several records for some structures; these can differ, active in one and inactive in another. Activity calls are given as the source filed them. Unless noted, calls come from the whole dose curve.
# Experiments:
# [1] = biological target: Peroxisome proliferator-activated receptor gamma (Homo sapiens) (UniProt P37231); experiment: qHTS assay to identify small molecule antagonists of the peroxisome proliferator-activated receptor gamma (PPARg) signaling pathway (AID 743191); conditions: HEK293H PPARg-UAS-bla, beta-lactamase ratio, antagonist, 17 h; ratio activity, negative = inhibition: at 62.6 µM (top of the series) unless noted; note: nearly all actives have a fitted effect of over 30% in size; note: potency is the fitted concentration of half-maximal effect; for ratio activity, negative = inhibition: % is set by controls: 0 for no effect and ±100 for the full control effect
# In short: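 Beta-lactamase reporter under UAS control in HEK293H PPARg-bla cells; compound treatment 17 h at 37C. Read-out: fluorescence intensity after 1 h room-temperature incubation with LiveBLAzer B/G FRET substrate.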
# [2] = qHTS assay for small molecule agonists of the antioxidant response element (ARE) signaling pathway (AID 743202; active = well fitted activation curve with a large enough effect in the signal ratio in the repeat runs, not every such curve was filed as active; inconclusive = weak or mixed curves, or effect the other way; inactive = no such curve, though single readings can be large or run the other way; the % refers to the signal ratio; note: potency is the fitted concentration of half-maximal effect); conditions: HepG2 ARE-bla reporter, beta-lactamase FRET, 16 h; activation: at 73.3 µM (top of the series) unless noted
# In short: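 Quantitative high-throughput format in HepG2 cells bearing an integrated ARE-beta-lactamase reporter. Compound exposure lasted 16 h at 37 C, and fluorescence was read 2 h after adding LiveBLAzer B/G substrate at room temperature.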
# [3] = qHTS assay to identify small molecule agonists of the peroxisome proliferator-activated receptor delta (PPARd) signaling pathway - cell viability counter screen (AID 743211; active = well fitted curve in the direction sought with a large enough effect in the repeat runs; inconclusive = weak or mixed curves; inactive = no such curve, though single readings can be large; an effect the other way counts as inactive or inconclusive; note: potency is the fitted concentration of half-maximal effect; nearly all actives have a fitted effect of over 55% in size); conditions: PPARd-bla HEK293H viability, CellTiter-Glo luminescence, 17 h; activity change, negative = cytotoxicity: at 62.6 µM (top of the series) unless noted
# In short: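 Viability was measured as CellTiter-Glo luminescence (30 min, room temperature) in the same wells as the beta-lactamase readout. GeneBLAzer PPARd UAS-bla HEK293H cells received compound after 5 h plating and were incubated 17 h at 37 C.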
# [4] = biological target: Bile acid receptor (Homo sapiens) (UniProt Q96RI1); experiment: qHTS assay to identify small molecule antagonists of the farnesoid-X-receptor (FXR) signaling pathway (AID 743217; active = well fitted inhibition curve with a large enough effect in the signal ratio in the repeat runs, not every such curve was filed as active; inconclusive = weak or mixed curves, or effect the other way; inactive = no such curve, though single readings can be large or run the other way; the % refers to the signal ratio; note: potency is the fitted concentration of half-maximal effect); conditions: HEK293T FXR-UAS-bla, beta-lactamase ratio, CDCA-stimulated, 16 h; for Potency: activity change, negative = inhibition: at 62.6 µM (top of the series) unless noted
# In short: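 Beta-lactamase reporter under UAS control in HEK 293T cells; compound exposure 16 h at 37 °C in the presence of chenodeoxycholic acid (50 uM final); signal from B/G FRET substrate after 2 h at room temperature.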
# [5] = biological target: Vitamin D3 receptor (Homo sapiens) (UniProt P11473); experiment: qHTS assay to identify small molecule antagonists of the vitamin D receptor (VDR) signaling pathway (AID 743223; active = well fitted inhibition curve with a large enough effect in the signal ratio in the repeat runs, not every such curve was filed as active; inconclusive = weak or mixed curves, or effect the other way; inactive = no such curve, though single readings can be large or run the other way; the % refers to the signal ratio; note: % is set by controls: 0 for no effect and ±100 for the full control effect); conditions: VDR-UAS-bla HEK293T, beta-lactamase FRET ratio, 16 h
# In short: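 Antagonist mode: compound added to VDR-bla cells alongside agonist 1alpha,25-dihydroxyvitamin D3 (3 nM final), incubation 16 h at 37C. Read-out is LiveBLAzer FRET fluorescence, 2 h at room temperature.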
# [6] = qHTS assay to identify small molecule antagonists of the peroxisome proliferator-activated receptor delta (PPARd) signaling pathway - cell viability counter screen (AID 743213; active = well fitted curve in the direction sought with a large enough effect in the repeat runs; inconclusive = weak or mixed curves; inactive = no such curve, though single readings can be large; an effect the other way counts as inactive or inconclusive; note: nearly all actives have a fitted effect of over 50% in size; note: potency is the fitted concentration of half-maximal effect); conditions: PPARd-bla HEK293H viability, CellTiter-Glo luminescence, 17 h; viability change, negative = cytotoxic: at 62 µM (top of the series) unless noted
# In short: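 PPARd-bla HEK293H cells were treated with compounds plus agonist L165041 (300 nM final) for 17 h at 37 C. Viability was then read in the same wells by CellTiter-Glo luminescence after 30 min at room temperature.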
# [7] = qHTS assay to identify small molecule agonists of the farnesoid-X-receptor (FXR) signaling pathway - cell viability counter screen (AID 743218; active = well fitted curve in the direction sought with a large enough effect in the repeat runs; inconclusive = weak or mixed curves; inactive = no such curve, though single readings can be large; an effect the other way counts as inactive or inconclusive; note: nearly all actives have a fitted effect of over 45% in size; note: potency is the fitted concentration of half-maximal effect); conditions: FXR-bla HEK293T viability, CellTiter-Glo luminescence, 16 h; viability change, negative = cytotoxic: at 62.6 µM (top of the series) unless noted
# In short: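 In GeneBLAzer FXR-UAS-bla HEK 293T cells, compounds act for 16 h at 37 C. Cell viability is then scored in the reporter wells by CellTiter-Glo, 30 min at RT, luminescence.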
# [8] = biological target: Peroxisome proliferator-activated receptor delta (Homo sapiens) (UniProt Q03181); experiment: qHTS assay to identify small molecule agonists of the peroxisome proliferator-activated receptor delta (PPARd) signaling pathway (AID 743212); conditions: HEK293H PPARd-UAS-bla, beta-lactamase FRET ratio, 17 h; activation: at 62.6 µM (top of the series) unless noted; note: % is set by controls: 0 for no effect and ±100 for the full control effect
# In short: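 HEK293H PPARd-bla cells; 5 h preincubation 37 C/5% CO2; compound (DMSO) 37 C; LiveBLAzer B/G FRET substrate 2 h RT; fluorescence intensity.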
# [9] = qHTS assay to identify small molecule antagonists of the farnesoid-X-receptor (FXR) signaling pathway - cell viability counter screen (AID 743221; active = well fitted cell-killing curve with a large enough effect in the repeat runs, not every such curve was filed as active; inconclusive = weak or mixed curves, or effect the other way; inactive = no such curve, though single readings can be large or run the other way; note: nearly all actives have a fitted effect of over 50% in size; note: potency is the fitted concentration of half-maximal effect); conditions: FXR-bla HEK293T viability, CellTiter-Glo luminescence, 16 h; activity change, negative = cytotoxicity: at 62.6 µM (top of the series) unless noted
# In short: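 Cytotoxicity counter screen run in the FXR-bla reporter wells: HEK 293T cells exposed to compound with 50 uM (final) chenodeoxycholic acid for 16 h, 37 C, then viability measured by CellTiter-Glo luminescence after 30 min, room temperature.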
# [10] = biological target: Bile acid receptor (Homo sapiens) (UniProt Q96RI1); experiment: qHTS assay to identify small molecule agonists of the farnesoid-X-receptor (FXR) signaling pathway (AID 743220; active = well fitted activation curve with a large enough effect in the signal ratio in the repeat runs, not every such curve was filed as active; inconclusive = weak or mixed curves, or effect the other way; the % refers to the signal ratio; note: potency is the fitted concentration of half-maximal effect); conditions: HEK293T FXR-UAS-bla, beta-lactamase FRET ratio, 16 h; activation: at 62.6 µM (top of the series) unless noted
# In short: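 Beta-lactamase reporter under UAS control in GeneBLAzer FXR HEK 293T cells (5000/well) measured with LiveBLAzer FRET substrate after 2 h at room temperature. Compound exposure lasted 16 h at 37C.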
# [11] = biological target: Vitamin D3 receptor (Homo sapiens) (UniProt P11473); experiment: qHTS assay to identify small molecule agonists of the vitamin D receptor (VDR) signaling pathway (AID 743222); conditions: HEK293T VDR-UAS-bla, beta-lactamase FRET ratio, 16 h; activation: at 63.5 µM (top of the series) unless noted; note: potency is the fitted concentration of half-maximal effect
# In short: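 Agonist activity measured in VDR-bla reporter cells. Exposure 16 h, 37C, 5% CO2; detection by B/G FRET substrate, 2 h RT.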
# [12] = qHTS assay to identify small molecule agonists of the vitamin D receptor (VDR) signaling pathway - cell viability counter screen (AID 743224; active = well fitted curve in the direction sought with a large enough effect in the repeat runs; inconclusive = weak or mixed curves; inactive = no such curve, though single readings can be large; an effect the other way counts as inactive or inconclusive; note: potency is the fitted concentration of half-maximal effect; nearly all actives have a fitted effect of over 50% in size); conditions: VDR-bla HEK293T viability, CellTiter-Glo luminescence, 16 h; activity change, negative = cytotoxicity: at 62.6 µM (top of the series)
# In short: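 VDR-bla cell line, quantitative HTS format; 16 h compound incubation (37C, 5% CO2); ATP-based CellTiter-Glo luminescence measured in the reporter assay wells.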
# [13] = biological target: Peroxisome proliferator-activated receptor delta (Homo sapiens) (UniProt Q03181); experiment: qHTS assay to identify small molecule antagonists of the peroxisome proliferator-activated receptor delta (PPARd) signaling pathway (AID 743215; active = well fitted inhibition curve with a large enough effect in the signal ratio in the repeat runs, not every such curve was filed as active; inconclusive = weak or mixed curves, or effect the other way; inactive = no such curve, though single readings can be large or run the other way; the % refers to the signal ratio;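 note: cells stimulated with agonist L165041 at 300 nM final during compound exposure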; note: potency is the fitted concentration of half-maximal effect); conditions: HEK293H PPARd-UAS-bla, beta-lactamase FRET ratio, antagonist, 17 h; ratio activity, negative = inhibition: at 62 µM (top of the series) unless noted
# In short: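 Antagonist-mode beta-lactamase reporter screen: HEK293H cells with UAS-bla under PPARd control, stimulated by 300 nM L165041 (final) alongside test compound for 17 h at 37 C, then FRET fluorescence after 2 h substrate incubation.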
# [14] = qHTS assay for small molecule activators of the heat shock response signaling pathway (AID 743210; active = well fitted activation curve with a large enough effect in the signal ratio in the repeat runs, with a control signal flat, not every such curve was filed as active; inconclusive = weak or mixed curves; the % refers to the signal ratio;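 note: HeLa cells with beta-lactamase reporter driven by heat shock elements; % is set by controls: 0 for no effect and ±100 for the full control effect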); conditions: HeLa HSE-bla reporter, beta-lactamase ratio, 5 h; activation: at 62.6 µM (top of the series) unless noted
# In short: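 HeLa HSE-bla cells, overnight plating; cpd in DMSO 5 h, 37 C; LiveBLAzer B/G FRET substrate 2.5 h RT; fluorescence intensity read.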
# [15] = qHTS assay to identify small molecule antagonists of the peroxisome proliferator-activated receptor gamma (PPARg) signaling pathway - cell viability counter screen (AID 743194; active = well fitted curve in the direction sought with a large enough effect in the repeat runs; inconclusive = weak or mixed curves; inactive = no such curve, though single readings can be large; an effect the other way counts as inactive or inconclusive; note: % is set by controls: 0 for no effect and ±100 for the full control effect; nearly all actives have a fitted effect of over 55% in size); conditions: PPARg-bla HEK293H viability, CellTiter-Glo luminescence, 17 h, co-treated with 50 nM rosiglitazone; activity change, negative = cytotoxicity: at 62.6 µM (top of the series) unless noted
# In short: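 Viability was measured as CellTiter-Glo luminescence in GeneBLAzer PPARg UAS-bla HEK293H cells. These cells had been exposed 17 h at 37 C to compounds together with rosiglitazone at 50 nM final, with the beta-lactamase readout taken in the same wells.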
# [16] = activity change, negative = inhibition: at 61 µM (top of the series) unless noted
# Tags give direction and shape of the fitted curve or compound fluorescence and quenching.
# Chain of UniProt P11473 (P11473 whole entry, looked up): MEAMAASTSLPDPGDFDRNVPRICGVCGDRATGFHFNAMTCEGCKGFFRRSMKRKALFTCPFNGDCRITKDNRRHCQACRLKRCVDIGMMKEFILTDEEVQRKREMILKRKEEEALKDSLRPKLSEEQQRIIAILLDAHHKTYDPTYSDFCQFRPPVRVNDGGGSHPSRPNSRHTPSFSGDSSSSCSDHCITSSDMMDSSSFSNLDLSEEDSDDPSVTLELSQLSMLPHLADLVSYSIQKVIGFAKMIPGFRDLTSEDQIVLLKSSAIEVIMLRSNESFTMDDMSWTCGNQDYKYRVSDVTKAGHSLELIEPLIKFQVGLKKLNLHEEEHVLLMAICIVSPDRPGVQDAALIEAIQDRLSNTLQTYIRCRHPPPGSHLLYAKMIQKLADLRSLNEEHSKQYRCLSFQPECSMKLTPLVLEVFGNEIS
# Chain of UniProt Q03181 (Q03181 whole entry, looked up): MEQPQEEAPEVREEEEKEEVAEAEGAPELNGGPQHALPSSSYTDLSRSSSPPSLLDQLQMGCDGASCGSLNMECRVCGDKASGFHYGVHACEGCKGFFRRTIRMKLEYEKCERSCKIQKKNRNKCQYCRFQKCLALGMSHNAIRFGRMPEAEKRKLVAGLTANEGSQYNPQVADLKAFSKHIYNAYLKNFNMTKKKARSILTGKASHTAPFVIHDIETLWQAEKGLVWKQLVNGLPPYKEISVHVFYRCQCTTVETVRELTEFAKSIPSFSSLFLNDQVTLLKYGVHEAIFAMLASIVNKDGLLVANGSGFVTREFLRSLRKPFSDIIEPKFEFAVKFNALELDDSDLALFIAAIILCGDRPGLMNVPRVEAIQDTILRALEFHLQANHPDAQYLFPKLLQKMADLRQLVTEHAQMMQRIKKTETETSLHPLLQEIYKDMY
# Chain of UniProt P37231 (P37231 whole entry, looked up): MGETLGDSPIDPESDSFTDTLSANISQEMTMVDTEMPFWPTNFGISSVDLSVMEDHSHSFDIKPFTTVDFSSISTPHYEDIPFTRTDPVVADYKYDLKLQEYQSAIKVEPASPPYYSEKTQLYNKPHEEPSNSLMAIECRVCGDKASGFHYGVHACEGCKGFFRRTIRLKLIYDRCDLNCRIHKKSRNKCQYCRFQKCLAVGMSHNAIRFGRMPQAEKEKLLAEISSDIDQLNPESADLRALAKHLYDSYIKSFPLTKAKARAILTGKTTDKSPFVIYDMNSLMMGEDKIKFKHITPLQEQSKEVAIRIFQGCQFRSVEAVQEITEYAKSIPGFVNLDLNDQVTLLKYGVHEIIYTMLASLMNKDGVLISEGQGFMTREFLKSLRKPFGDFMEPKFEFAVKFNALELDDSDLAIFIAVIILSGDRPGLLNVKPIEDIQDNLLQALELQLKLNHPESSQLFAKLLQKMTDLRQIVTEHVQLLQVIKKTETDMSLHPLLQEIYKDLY
# Chain of UniProt Q96RI1 (Q96RI1 whole entry, looked up): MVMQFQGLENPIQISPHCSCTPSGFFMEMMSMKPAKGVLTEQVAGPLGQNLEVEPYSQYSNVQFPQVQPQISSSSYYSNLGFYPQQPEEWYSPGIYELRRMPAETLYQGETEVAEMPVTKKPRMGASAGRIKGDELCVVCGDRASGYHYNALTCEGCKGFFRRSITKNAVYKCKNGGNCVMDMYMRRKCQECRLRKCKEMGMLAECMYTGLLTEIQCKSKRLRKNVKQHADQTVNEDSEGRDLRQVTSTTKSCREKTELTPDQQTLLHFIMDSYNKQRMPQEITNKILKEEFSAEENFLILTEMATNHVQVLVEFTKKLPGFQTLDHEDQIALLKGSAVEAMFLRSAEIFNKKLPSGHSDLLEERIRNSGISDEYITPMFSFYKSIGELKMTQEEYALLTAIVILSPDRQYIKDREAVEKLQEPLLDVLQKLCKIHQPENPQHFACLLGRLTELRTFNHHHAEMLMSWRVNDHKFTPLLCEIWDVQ
structure (smiles),measurement,setting,value
CCCC1C(CC)=CC(CC)=CN1c1ccccc1 (stereo not drawn),Potency,[1],inactive
same,Potency,[2],active: 54.5 µM
same,Potency,[3],"inconclusive: 43.6 µM [cytotoxic, partial curve, poor fit]"
same,Potency,[4],inactive
same,"activity change, negative = inhibition",[5]; [16],inconclusive: -0.16%
CCC(O)OC(O)CC (stereo not drawn),Potency,[1],inactive
same,activation,[2],inconclusive: 2.35%
same,Potency,[6],"inconclusive: 22.1 µM [cytotoxic, single point]"
same,Potency,[7],inactive
same,"activity change, negative = inhibition",[5]; [16],inconclusive: 21.9% [at 78.8 µM]
CCCCCCCCCC(=O)OCC,Potency,[1],"inconclusive: 54.9 µM [activator, partial curve, poor fit]"
same,Potency,[2],inactive
same,Potency,[8],inactive
same,Potency,[5]; [16],inactive
Nc1ncnc2c1ncn2[C@H]1CC[C@@H](CO)O1,"ratio activity, negative = inhibition",[1],inconclusive: 8.76% [at 81.1 µM]
same,Potency,[2],inactive
same,Potency,[6],"inconclusive: 2.23 µM [cytotoxic, full curve, poor fit]"
same,Potency,[9],inactive
Cc1cccc(C)c1OCC(C)N (stereo not drawn),Potency,[1],inactive
same,Potency,[2],inactive
same,Potency,[10],"inconclusive: 33.5 µM [rising, single point]"
Clc1ccc2nsnc2c1NC1=NCCN1,Potency,[1],inactive
same,Potency,[2],"inconclusive: 37.6 µM [rising, partial curve, poor fit]"
same,Potency,[4],inactive
CCCCOC(O)CC (stereo not drawn),Potency,[1],inactive
same,Potency,[2],inactive
same,Potency,[6],inactive
[O]=[Zr],"ratio activity, negative = inhibition",[1],inconclusive: 4.54%
same,Potency,[2],"inconclusive: 48.4 µM [falling, partial curve]"
same,Potency,[7],inactive
CC(C)CC(C)O (stereo not drawn),"ratio activity, negative = inhibition",[1],inconclusive: -9.37%
same,Potency,[2],active: 30.6 µM
same,Potency,[11],"inconclusive: 0.155 µM [rising, partial curve, poor fit]"
same,Potency,[12],"inconclusive: 54.9 µM [cytotoxic, single point]"
O=C1CCCCCCCCCCC1,"ratio activity, negative = inhibition",[1],inconclusive: 0.0261%
same,activation,[2],inconclusive: 31.9% and inconclusive: 7.14%
same,Potency,[13],"inconclusive: 9.77 µM [fluorescent, partial curve, poor fit]"
CC(=O)Oc1ccc(C2(c3ccc(OC(C)=O)cc3)Oc3ccccc3NC2=O)cc1,Potency,[1],"inconclusive: 23.7 µM [inhibitor, partial curve, poor fit]"
same,Potency,[2],"inconclusive: 26.6 µM [rising, partial curve, poor fit]"
same,Potency,[6],"inconclusive: 0.0094 µM [cytotoxic, full curve, poor fit]"
same,Potency,[13],"inconclusive: 3.76 µM [inhibitor, full curve, poor fit]"
same,Potency,[4],"inconclusive: 2.66 µM [rising, full curve, poor fit]"
same,Potency,[7],"inconclusive: 13.3 µM [cytotoxic, full curve]"
same,activation,[11],inconclusive: -18.1%
same,"activity change, negative = inhibition",[5]; [16],inconclusive: -37.4%
CC1=C(C=O)C(C)(C)CCC1,Potency,[1],inactive
same,Potency,[2],"inconclusive: 34.4 µM [falling, partial curve, poor fit]"
same,Potency,[4],inactive
same,Potency,[9],inactive
same,"activity change, negative = inhibition",[5]; [16],inconclusive: 13.3%
O=C(OCC(O)CO)c1ccccc1Nc1ccnc2c(C(F)(F)F)cccc12 (stereo not drawn),Potency,[1],active: 16.8 µM
same,Potency,[2],active: 26.6 µM
same,Potency,[4],"inconclusive: 11.9 µM [inhibitor, partial curve]"
same,Potency,[5]; [16],inactive
O=C=NCC1CCCC(CN=C=O)C1 (stereo not drawn),Potency,[1],inactive
same,activation,[2],inconclusive: -11.5%
same,Potency,[9],"inconclusive: 54.9 µM [rising, partial curve]"
CC(COC(=O)c1ccccc1)OC(=O)c1ccccc1 (stereo not drawn),"ratio activity, negative = inhibition",[1],inconclusive: 26.2%
same,activation,[2],inconclusive: 8.61%
same,Potency,[7],"inconclusive: 54.9 µM [rising, partial curve, poor fit]"
same,activation,[11],inconclusive: 7.11%
CCCCCCCC/C=C\CCCCCCCC(=O)OC,Potency,[1],inactive
same,Potency,[2],inactive
same,Potency,[13],inactive
same,Potency,[7],"inconclusive: 0.55 µM [rising, partial curve, poor fit]"
OC[C@H]1O[C@@H]2O[C@H]3[C@H](O)[C@@H](O)[C@@H](O[C@H]4[C@H](O)[C@@H](O)[C@@H](O[C@H]5[C@H](O)[C@@H](O)[C@@H](O[C@H]6[C@H](O)[C@@H](O)[C@@H](O[C@H]7[C@H](O)[C@@H](O)[C@@H](O[C@H]1[C@H](O)[C@H]2O)O[C@@H]7CO)O[C@@H]6CO)O[C@@H]5CO)O[C@@H]4CO)O[C@@H]3CO,Potency,[1],inactive
same,Potency,[2],inactive and inconclusive: 28.9 µM
same,Potency,[14],inactive
same,"activity change, negative = inhibition",[5]; [16],inconclusive: 7%
same,"activity change, negative = inhibition",[5]; at 61 µM (top of the series),inactive: 2.96%
O=S(=O)(O)CCCN1CCOCC1,"ratio activity, negative = inhibition",[1],inconclusive: 13.4%
same,activation,[2],inconclusive: 0%
same,Potency,[6],inactive
same,"ratio activity, negative = inhibition",[13],inconclusive: 23.3%
same,Potency,[5]; [16],inactive
CN(N=O)C(=O)N[C@@H]1[C@@H](O)[C@H](O)[C@@H](CO)O[C@@H]1O,"activity change, negative = inhibition",[4]; at 62.6 µM (top of the series),inactive: -0.32% and inactive: -6.71%
CC(CO)(CO)C(=O)O,Potency,[10],inactive
CC(=O)C(C)=O,Potency,[10],inactive
Cc1ccc(C(C)C)c(O)c1,"activity change, negative = inhibition",[5]; at 61 µM (top of the series),inactive: 2.16%
Cc1cccc(Br)c1,Potency,[15],inactive
CNC(C)=O,Potency,[1],inactive
same,Potency,[11],inactive
COC(=O)c1cc(Cl)ccc1OC,Potency,[1],inactive
same,Potency,[7],"inconclusive: 18.8 µM [rising, full curve, poor fit]"
CCCc1ncc(C[n+]2ccccc2C)c(N)n1,Potency,[1],inactive
same,Potency,[6],"inconclusive: 0.266 µM [cytotoxic, full curve, poor fit]"
same,Potency,[4],inactive
same,Potency,[7],inactive
